PMC7432475, “β-Carbolines in Experiments on Laboratory Animals” (International Journal of Molecular Sciences, 2020)
Read-outs that look alike come from different tables or passages of the source.

Conditions: rat, in vivo, in 100g, stage I
Experimental: The experiment was conducted in the animal housing facility at the Institute of Human Nutrition and Dietetics, Poznań University of Life Sciences, under conditions of natural light and with the temperature maintained during the experiment at 19–22 °C, and with a relative humidity of 55–60%. Seventeen-month-old male Sprague Dawley rats originating from a Charles River Laboratories farm were used in the experiment. The age of the rats corresponded to 51 years of human life. For the first ten days of the experiment (the adaptation period), the rats were fed ad libitum with a standard laboratory diet and water. The experiment was conducted in two stages. In the first stage, after acclimatization, the animals were randomly divided into seven groups (n = 6 each). The control rats were fed the AIN-93M rodent diet. […] There were no differences in body weight between the groups at the beginning of either stage of the experiment. All rats were provided ad libitum diet and water for the fourteen weeks of both experiments. The food consumption of the individual rats was monitored daily by measuring the difference between the amount of diet supplied each day and the amount of diet remaining. Feces were collected for ten days in the seventh week of the experiment, and water content, protein, fat, dietary fiber, and ash were determined using standard analytical methods. Body mass was measured every seven days using an electronic balance. […]
The total dietary (TDF), soluble (SDF), and insoluble (IDF) dietary fiber content of the experimental diet, defatted prior to analysis, were determined following a method described by Asp, Johansson, Hallmer, and Siljeström. […] Fat content was measured after extracting 5 g with petroleum ether in a Soxtec Avanti 2055 apparatus (FOSS Tecator AB, Höganäs, Sweden). […] Samples of 2 g were dried in an automatic air exchange dryer at 130 °C until constant weight, expressed as g/100 g of feces. […] The average ash content was calculated as g/100 g of feces.

SMILES: Cc1nccc2c1[nH]c1ccccc12 [H, harman]
- IDF [g] (insoluble dietary fiber) in feces (group H1 (10 µg H/kg diet)): 55,21 g
- IDF [g] (insoluble dietary fiber) in feces (group H2 (15 µg H/kg diet)): 56,86 g
- IDF [g] (insoluble dietary fiber) in feces (group H3 (20 µg H/kg diet)): 54,91 g
